Test results taken from the supplement of paper PMC7826260.
The other results are listed elsewhere or left out. Cleavage of a single-stranded DNA pool by Rep nickase domains was read by sequencing for 1 h at 37 °C with 3 µM enzyme; only the middle of the 90-letter strands is printed. A value is the log2 ratio of uncut reads to the pool without enzyme; strong cutting gives strongly negative numbers. There is no active / inactive call. Because reads are shares of a total, they shift together; where an enzyme cuts many sequences, the uncut ones exceed 0.

Test system: T1, Rep nickase domain of tomato golden mosaic virus
T1 sequence (residues 1-124 of Rep, tag left off): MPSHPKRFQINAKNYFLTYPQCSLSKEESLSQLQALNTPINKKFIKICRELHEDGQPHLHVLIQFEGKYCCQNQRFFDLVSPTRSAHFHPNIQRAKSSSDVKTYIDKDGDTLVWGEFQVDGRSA
Assay: uncleaved DNA left, log2 of reads against the no-enzyme library (log2 ratio); higher = less cleavage (more negative = more Rep cleavage of the k-mer); sequences stand for … in CTCGTCCG…ACCGGAGA
Description: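 A pool of 90-nt single-stranded DNAs with seven random bases just before the constant AC of the nick site (name = the seven bases) was cut by 3 µM recombinant His6-SUMO-tagged Rep nickase domain (300 nM DNA, 50 mM HEPES pH 8.0, 50 mM NaCl, 1 mM MnCl2, 1 h, 37 °C, three replicates). Uncut DNA was amplified and sequenced.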

Sequence	uncleaved DNA left (log2)
TGCCGGA	0.0389
TATTGGT	-0.161
GACAGGT	-0.0236
ATGGCAT	0.179
GCCTTTC	-0.231
TGGCGTC	-0.149
TGTAACA	-0.0034
TGTCATG	-0.158
TAGGCAT	0.138
CAGCCAG	-0.178
ACTCAAC	-0.0241
TCCATTG	0.0188
TACGCTT	-0.251
CCCAGCA	-0.081
TTGTCTT	-0.148
TACAGGC	0.0918
GCCGTGT	-0.153
TGCATCC	-0.089
GTAGAGC	-0.0104
TCCGTTT	0.0194

Sequence	uncleaved DNA left (log2)
CCGAGTC	-0.0837
CCTATTT	0.00576
GACCCGC	-0.166
AGTAGAC	0.0526
TGGCGTA	0.024
GAACATG	-0.00203
CAATTCG	-0.0739
ATACGAC	6.61e-06
GGTAGAT	0.0493
GGTAGTG	0.0701
AGACCAG	0.0203
AACTTCG	0.0524
GGGGATT	-0.0341
ACGCCCT	0.0526
ATTTTCG	-0.0757
GGAGAAC	0.127
TCAGGAG	-0.0494
CCCGGGG	0.0196
TCAAGAA	-0.0206
TATTCCC	-0.0229
